{"source": "the supplement of paper PMC3724861", "note": "The list shows a part of the results."}
{"system": "T1, Caupolican (Caup) homeodomain DNA-binding domain", "T1 sequence": "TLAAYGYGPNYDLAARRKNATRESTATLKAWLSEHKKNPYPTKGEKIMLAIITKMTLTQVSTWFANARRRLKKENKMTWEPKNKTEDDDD", "assay": "PBM E-score (8-mer, recovered from the published 9-mer minima) (E-score (dimensionless, -0.5 to 0.5)); Drosophila protein; higher = stronger relative binding preference, active = 0.31 or more", "procedure,_shortened": "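Caup's homeodomain DNA-binding domain (residues 214-303) was produced by in vitro transcription and translation and applied at 100 nM to custom-designed protein binding microarrays. Each value is an enrichment score giving relative binding preference for a short DNA word; higher means stronger. Published 9-mer scores were the minimum of their two constituent 8-mer scores, and the 8-mer values were recovered from those minima. A cutoff of 0.31 marks candidate binding sequences.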"}
{"sequence": "AACTCACC", "PBM E-score": "inactive: -0.0396"}
{"sequence": "CGTAGAAC", "PBM E-score": "inactive: -0.0877"}
{"sequence": "ATAGAAGC", "PBM E-score": "inactive: 0.00935"}
{"sequence": "AGGATGTA", "PBM E-score": "≥ 0.305"}
{"sequence": "ACTGGCCG", "PBM E-score": "inactive: -0.194"}
{"sequence": "GACGTTTA", "PBM E-score": "inactive: 0.0351"}
{"sequence": "CTGTCTAC", "PBM E-score": "inactive: 0.0659"}
{"sequence": "GAAAAATC", "PBM E-score": "inactive: -0.0429"}
{"sequence": "CCGCGTTC", "PBM E-score": "inactive: -0.0728"}
{"sequence": "GACGATGA", "PBM E-score": "inactive: 0.0505"}
{"sequence": "AAAATCGG", "PBM E-score": "inactive: -0.0552"}
{"sequence": "ACCTGTAT", "PBM E-score": "inactive: 0.222"}
{"sequence": "GTCCTGGA", "PBM E-score": "inactive: -0.0617"}
{"sequence": "GCCCGCGA", "PBM E-score": "inactive: -0.207"}
{"sequence": "CAGGGGGC", "PBM E-score": "inactive: -0.266"}
{"sequence": "AGCGGTAG", "PBM E-score": "inactive: -0.0759"}
{"sequence": "CAAATATA", "PBM E-score": "inactive: 0.147"}
{"sequence": "CAGGACGC", "PBM E-score": "inactive: -0.0476"}
{"sequence": "CATATCGG", "PBM E-score": "inactive: 0.0413"}
{"sequence": "ACAGGTGA", "PBM E-score": "inactive: 0.195"}
{"sequence": "AGGGTCCG", "PBM E-score": "inactive: -0.24"}
{"sequence": "AGTTCCCA", "PBM E-score": "inactive: -0.0512"}
{"sequence": "CTTCTCCA", "PBM E-score": "inactive: -0.184"}
{"sequence": "CGCGATGC", "PBM E-score": "inactive: -0.272"}
{"sequence": "CCGAGTAG", "PBM E-score": "inactive: -0.0123"}
{"sequence": "ATCCCGGG", "PBM E-score": "inactive: -0.0372"}
{"sequence": "CAGCTGAA", "PBM E-score": "inactive: -0.03"}
{"sequence": "AGGAATTG", "PBM E-score": "inactive: 0.121"}
{"sequence": "GGCCGCGA", "PBM E-score": "inactive: -0.26"}
{"sequence": "CACCTAGC", "PBM E-score": "inactive: -0.146"}
{"sequence": "GTGATATA", "PBM E-score": "inactive: 0.152"}
{"sequence": "ACTGAGTC", "PBM E-score": "inactive: -0.0541"}
{"sequence": "ATGAAGCC", "PBM E-score": "inactive: -0.016"}
{"sequence": "CGCACAAC", "PBM E-score": "inactive: 0.0805"}
{"sequence": "TCTTCACA", "PBM E-score": "inactive: 0.0795"}
{"sequence": "ATCTCCGA", "PBM E-score": "≥ -0.0458"}
{"sequence": "CCAACACG", "PBM E-score": "inactive: 0.237"}
{"sequence": "GCCTGTCC", "PBM E-score": "inactive: -0.0708"}
{"sequence": "CGGACGAG", "PBM E-score": "inactive: -0.143"}
{"sequence": "GTACCGCA", "PBM E-score": "inactive: -0.0137"}
{"sequence": "AATGAATA", "PBM E-score": "inactive: 0.14"}
{"sequence": "ACTAACCT", "PBM E-score": "inactive: 0.15"}
{"sequence": "CTATACCC", "PBM E-score": "inactive: -0.104"}
{"sequence": "CTTACCAA", "PBM E-score": "inactive: 0.0972"}
{"sequence": "TGTCACAA", "PBM E-score": "inactive: 0.303"}
{"sequence": "GACGCTAC", "PBM E-score": "inactive: -0.00575"}
{"sequence": "ACGGAAAG", "PBM E-score": "inactive: -0.0385"}
{"sequence": "GATGCTGA", "PBM E-score": "inactive: -0.0674"}
{"sequence": "ACGACCCC", "PBM E-score": "inactive: -0.273"}
{"sequence": "CTACTAGC", "PBM E-score": "inactive: 0.0844"}
{"sequence": "GGCCCCCA", "PBM E-score": "inactive: -0.338"}
{"sequence": "CTCAGCGC", "PBM E-score": "inactive: -0.145"}
{"sequence": "GACTTACC", "PBM E-score": "inactive: -0.0473"}
{"sequence": "AACAATTG", "PBM E-score": "inactive: 0.126"}
{"sequence": "GGGGGGTA", "PBM E-score": "inactive: -0.28"}
{"sequence": "ACTCAAAC", "PBM E-score": "inactive: 0.114"}
{"sequence": "CAGATGAC", "PBM E-score": "inactive: 0.00101"}
{"sequence": "AACGGCAT", "PBM E-score": "≥ 0.077"}
{"sequence": "ACAACAGT", "PBM E-score": "inactive: 0.205"}
{"sequence": "AATCTCGG", "PBM E-score": "inactive: -0.0518"}
{"sequence": "ATCCGCGC", "PBM E-score": "inactive: -0.102"}
{"sequence": "TCCGCAGA", "PBM E-score": "inactive: -0.0726"}
{"sequence": "AAACCTGG", "PBM E-score": "inactive: 0.0158"}
{"sequence": "CACGAGCA", "PBM E-score": "inactive: 0.0519"}
{"sequence": "CGTGAGAC", "PBM E-score": "inactive: -0.0591"}
{"sequence": "GATCAACA", "PBM E-score": "inactive: 0.214"}
{"sequence": "AGCCCCGG", "PBM E-score": "inactive: -0.248"}
{"sequence": "GGCCTCAA", "PBM E-score": "inactive: -0.145"}
{"sequence": "CCCGCGGC", "PBM E-score": "inactive: -0.226"}
{"sequence": "AAATCACG", "PBM E-score": "inactive: 0.0601"}
{"sequence": "CCCTCAGC", "PBM E-score": "inactive: -0.214"}
{"sequence": "ATGTTACG", "PBM E-score": "active: 0.326"}
{"sequence": "ACTCGCAA", "PBM E-score": "≥ 0.0477"}
{"sequence": "CAGCCTCC", "PBM E-score": "inactive: -0.292"}
{"sequence": "AGAGGAAG", "PBM E-score": "inactive: -0.148"}
{"sequence": "GGGCGCGA", "PBM E-score": "inactive: -0.267"}
{"sequence": "CTCCAAGC", "PBM E-score": "inactive: -0.157"}
{"sequence": "CATACATG", "PBM E-score": "active: 0.44"}
{"sequence": "AAGTCTTG", "PBM E-score": "inactive: 0.12"}
{"sequence": "CGGGGCTA", "PBM E-score": "inactive: -0.177"}
{"sequence": "CTTTACTC", "PBM E-score": "inactive: -0.0119"}
{"sequence": "ACGCCCGG", "PBM E-score": "inactive: -0.241"}
{"sequence": "GGGTTTTA", "PBM E-score": "inactive: -0.0316"}
{"sequence": "CACCCTCA", "PBM E-score": "inactive: -0.135"}
{"sequence": "ATAAAGTA", "PBM E-score": "inactive: 0.163"}
{"sequence": "AAAAGCTA", "PBM E-score": "inactive: -0.0372"}
{"sequence": "TCCTTAAA", "PBM E-score": "inactive: 0.031"}
{"sequence": "CTGCTCCC", "PBM E-score": "inactive: -0.108"}
{"sequence": "AGTACCCA", "PBM E-score": "inactive: 0.0315"}
{"sequence": "TGTGCGAA", "PBM E-score": "inactive: -0.0814"}
{"sequence": "AACATCTT", "PBM E-score": "inactive: 0.246"}
{"sequence": "AGCATCGA", "PBM E-score": "inactive: -0.0143"}
{"sequence": "AGGATAAT", "PBM E-score": "inactive: 0.053"}
{"sequence": "ACCAGGCG", "PBM E-score": "inactive: -0.164"}
{"sequence": "GAAGTCTA", "PBM E-score": "inactive: -0.0315"}
{"sequence": "ATGCAAGA", "PBM E-score": "inactive: 0.0828"}
{"sequence": "TCCCACAA", "PBM E-score": "inactive: -0.0657"}
{"sequence": "CGGTAGTC", "PBM E-score": "inactive: -0.108"}
{"sequence": "GCAATGAC", "PBM E-score": "inactive: 0.0198"}
{"sequence": "AAAACATT", "PBM E-score": "inactive: 0.252"}
{"sequence": "CCATTAAG", "PBM E-score": "inactive: -0.0422"}
{"sequence": "CGTCGAGA", "PBM E-score": "inactive: -0.0457"}
{"sequence": "AATAACTA", "PBM E-score": "inactive: 0.192"}
{"sequence": "GACGTGGC", "PBM E-score": "inactive: -0.109"}
{"sequence": "CGGAGTAA", "PBM E-score": "inactive: -0.0184"}
{"sequence": "AGAAATAT", "PBM E-score": "inactive: 0.134"}
{"sequence": "CGGGACTC", "PBM E-score": "inactive: -0.204"}
{"sequence": "ATCCCTGG", "PBM E-score": "inactive: -0.0903"}
{"sequence": "ATTAAAAT", "PBM E-score": "inactive: 0.127"}
{"sequence": "TAATAAGA", "PBM E-score": "inactive: 0.13"}
{"sequence": "CTTATTCA", "PBM E-score": "inactive: 0.051"}
{"sequence": "AATTGGAT", "PBM E-score": "inactive: 0.0994"}
{"sequence": "CAACTCCA", "PBM E-score": "inactive: -0.0718"}
{"sequence": "AACATCGC", "PBM E-score": "inactive: 0.201"}
{"sequence": "GCTTTGGA", "PBM E-score": "inactive: 0.0316"}
{"sequence": "ACGTCGCG", "PBM E-score": "inactive: -0.04"}
{"sequence": "GTCATAAA", "PBM E-score": "inactive: 0.164"}
{"sequence": "GACGATCA", "PBM E-score": "inactive: -0.00416"}
{"sequence": "CAAGTAGG", "PBM E-score": "inactive: -0.00819"}
{"sequence": "GACCTCTA", "PBM E-score": "inactive: -0.142"}
{"sequence": "AAACACGC", "PBM E-score": "inactive: 0.248"}
{"sequence": "ATAGTTTC", "PBM E-score": "inactive: 0.00403"}
{"sequence": "ACTAGATA", "PBM E-score": "inactive: 0.114"}
{"sequence": "CAATGTGG", "PBM E-score": "inactive: 0.0734"}
{"sequence": "CAGTACGC", "PBM E-score": "inactive: -0.00729"}
{"sequence": "CTGACTCA", "PBM E-score": "inactive: -0.0032"}
{"sequence": "CTGAAGCC", "PBM E-score": "inactive: -0.145"}
{"sequence": "CCTTTACG", "PBM E-score": "inactive: 0.00316"}
{"sequence": "AATGGAAT", "PBM E-score": "inactive: 0.128"}
{"sequence": "GATGTCTA", "PBM E-score": "inactive: 0.23"}
{"sequence": "CCTAGGAA", "PBM E-score": "inactive: -0.0215"}
{"sequence": "ATAAAGTG", "PBM E-score": "inactive: 0.166"}
{"sequence": "ACCTTCAT", "PBM E-score": "inactive: -0.0549"}
{"sequence": "GGCCATCA", "PBM E-score": "inactive: -0.0779"}
{"sequence": "ACGCTAAA", "PBM E-score": "inactive: 0.0305"}
{"sequence": "GATCTGAA", "PBM E-score": "inactive: -0.0249"}
{"sequence": "CAGTCGAA", "PBM E-score": "inactive: -0.00079"}
{"sequence": "AAGTTATT", "PBM E-score": "inactive: 0.145"}
{"sequence": "ATTTTGTC", "PBM E-score": "inactive: 0.189"}
{"sequence": "GGCGAGAC", "PBM E-score": "inactive: -0.158"}
{"sequence": "ATCCATCA", "PBM E-score": "≥ 0.0954"}
{"sequence": "GGTCAGAC", "PBM E-score": "inactive: -0.0993"}
